# Results published in the supplement of paper PMC8728848.
# The list shows a part of the results.
# Legend:
# Test in all cases: glycan array binding signal (z-score within array); higher = stronger binding
# Conditions in all cases: glycan notation: IUPAC condensed, linker removed
# [1] = biological target: GlcNAc(a1-4)Gal(b1-3)GlcNAc
# Method in brief: (§1)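 Columns mapping to the same glycan were averaged after glycan names were converted to IUPAC-condensed notation. The data come from 3228 arrays in the Consortium for Functional Glycomics database, limited to those with an available protein sequence. Binding is reported as a within-array Z-score averaged across arrays of one protein sequence and across linkers.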
# [2] = biological target: GlcNAc(a1-4)Gal(b1-4)GalNAc
# Method in brief: as §1
# [3] = biological target: GlcNAc(a1-4)Gal(b1-4)GlcNAc
# Method in brief: as §1
# [4] = biological target: GlcNAc(a1-4)Gal(b1-4)GlcNAc(b1-3)Gal(b1-4)Glc
# Method in brief: as §1
# [5] = biological target: GlcNAc(a1-4)Gal(b1-4)GlcNAc(b1-3)Gal(b1-4)GlcNAc
# Method in brief: as §1
# [6] = biological target: GlcNAc(a1-4)Gal(b1-4)GlcNAc(b1-3)Gal(b1-4)GlcNAc(b1-3)Gal(b1-4)GlcNAc
# Method in brief: as §1
# [7] = biological target: GlcNAc(a1-4)Gal(b1-4)GlcNAc(b1-3)Gal(b1-4)[Fuc(a1-3)]GlcNAc(b1-3)Gal(b1-4)[Fuc(a1-3)]GlcNAc
# Method in brief: as §1
# [8] = biological target: GlcNAc(a1-6)Gal(b1-4)GlcNAc
# Method in brief: as §1
# [9] = biological target: GlcNAc(b1-2)Gal(b1-3)GalNAc
# Method in brief: as §1
# [10] = biological target: GlcNAc(b1-2)Man(a1-3)[GlcNAc(b1-2)Man(a1-6)]Man(b1-4)GlcNAc(b1-4)GlcNAc
# Method in brief: as §1
# [11] = biological target: GlcNAc(b1-2)Man(a1-3)[GlcNAc(b1-2)Man(a1-6)]Man(b1-4)GlcNAc(b1-4)[Fuc(a1-6)]GlcNAc
# Method in brief: as §1
# [12] = biological target: GlcNAc(b1-2)Man(a1-3)[GlcNAc(b1-4)][GlcNAc(b1-2)Man(a1-6)]Man(b1-4)GlcNAc(b1-4)GlcNAc
# Method in brief: as §1
# [13] = biological target: GlcNAc(b1-2)Man(a1-3)[GlcNAc(b1-4)][GlcNAc(b1-2)Man(a1-6)]Man(b1-4)GlcNAc(b1-4)[Fuc(a1-6)]GlcNAc
# Method in brief: as §1
# [14] = biological target: GlcNAc(b1-2)[GlcNAc(b1-4)]Man(a1-3)[GlcNAc(b1-2)Man(a1-6)]Man(b1-4)GlcNAc(b1-4)GlcNAc
# Method in brief: as §1
# [15] = biological target: GlcNAc(b1-2)[GlcNAc(b1-4)]Man(a1-3)[GlcNAc(b1-4)][GlcNAc(b1-2)Man(a1-6)]Man(b1-4)GlcNAc(b1-4)GlcNAc
# Method in brief: as §1
# [16] = biological target: GlcNAc(b1-2)[GlcNAc(b1-4)]Man(a1-3)[GlcNAc(b1-4)][GlcNAc(b1-2)[GlcNAc(b1-6)]Man(a1-6)]Man(b1-4)GlcNAc(b1-4)GlcNAc
# Method in brief: as §1
# [17] = biological target: GlcNAc(b1-2)[GlcNAc(b1-4)]Man(a1-3)[GlcNAc(b1-4)][GlcNAc(b1-2)[GlcNAc(b1-6)]Man(a1-6)]Man(b1-4)GlcNAc(b1-4)[Fuc(a1-6)]GlcNAc
# Method in brief: as §1
# [18] = biological target: GlcNAc(b1-2)[GlcNAc(b1-6)]Man(a1-6)[GlcNAc(b1-2)Man(a1-3)]Man(b1-4)GlcNAc(b1-4)GlcNAc
# Method in brief: as §1
# [19] = biological target: GlcNAc(b1-2)[GlcNAc(b1-6)]Man(a1-6)[GlcNAc(b1-2)Man(a1-3)]Man(b1-4)GlcNAc(b1-4)[Fuc(a1-6)]GlcNAc
# Method in brief: as §1
# [20] = biological target: GlcNAc(b1-2)[GlcNAc(b1-6)]Man(a1-6)[GlcNAc(b1-4)][GlcNAc(b1-2)Man(a1-3)]Man(b1-4)GlcNAc(b1-4)GlcNAc
# Method in brief: as §1
# [21] = biological target: GlcNAc(b1-3)Fuc
# Method in brief: as §1
# [22] = biological target: GlcNAc(b1-3)Gal
# Method in brief: as §1
# [23] = biological target: GlcNAc(b1-3)Gal(b1-3)GalNAc
# Method in brief: as §1
# [24] = biological target: GlcNAc(b1-3)Gal(b1-4)Glc
# Method in brief: as §1
# [25] = biological target: GlcNAc(b1-3)Gal(b1-4)GlcNAc
# Method in brief: as §1
# [26] = biological target: GlcNAc(b1-3)Gal(b1-4)GlcNAc(b1-2)Man(a1-3)[GlcNAc(b1-3)Gal(b1-4)GlcNAc(b1-2)Man(a1-6)]Man(b1-4)GlcNAc(b1-4)GlcNAc
# Method in brief: as §1
# [27] = biological target: GlcNAc(b1-3)Gal(b1-4)GlcNAc(b1-2)Man(a1-3)[GlcNAc(b1-3)Gal(b1-4)GlcNAc(b1-2)Man(a1-6)]Man(b1-4)GlcNAc(b1-4)[Fuc(a1-6)]GlcNAc
# Method in brief: as §1
# [28] = biological target: GlcNAc(b1-3)Gal(b1-4)GlcNAc(b1-2)[GlcNAc(b1-3)Gal(b1-4)GlcNAc(b1-6)]Man(a1-6)[GlcNAc(b1-3)Gal(b1-4)GlcNAc(b1-2)Man(a1-3)]Man(b1-4)GlcNAc(b1-4)GlcNAc
# Method in brief: as §1
# [29] = biological target: GlcNAc(b1-3)Gal(b1-4)GlcNAc(b1-3)Gal(b1-4)GlcNAc
# Method in brief: as §1
# [30] = biological target: GlcNAc(b1-3)Gal(b1-4)GlcNAc(b1-3)Gal(b1-4)GlcNAc(b1-2)Man(a1-3)[GlcNAc(b1-3)Gal(b1-4)GlcNAc(b1-3)Gal(b1-4)GlcNAc(b1-2)Man(a1-6)]Man(b1-4)GlcNAc(b1-4)GlcNAc
# Method in brief: as §1
# [31] = biological target: GlcNAc(b1-3)Gal(b1-4)GlcNAc(b1-3)Gal(b1-4)GlcNAc(b1-2)Man(a1-3)[GlcNAc(b1-3)Gal(b1-4)GlcNAc(b1-3)Gal(b1-4)GlcNAc(b1-2)Man(a1-6)]Man(b1-4)GlcNAc(b1-4)[Fuc(a1-6)]GlcNAc
# Method in brief: as §1
# [32] = biological target: GlcNAc(b1-3)Gal(b1-4)GlcNAc(b1-3)Gal(b1-4)GlcNAc(b1-2)[GlcNAc(b1-3)Gal(b1-4)GlcNAc(b1-3)Gal(b1-4)GlcNAc(b1-6)]Man(a1-6)[GlcNAc(b1-3)Gal(b1-4)GlcNAc(b1-3)Gal(b1-4)GlcNAc(b1-2)Man(a1-3)]Man(b1-4)GlcNAc(b1-4)[Fuc(a1-6)]GlcNAc
# Method in brief: as §1
# [33] = biological target: GlcNAc(b1-3)Gal(b1-4)GlcNAc(b1-3)Gal(b1-4)GlcNAc(b1-3)Gal(b1-4)GlcNAc(b1-2)Man(a1-3)[GlcNAc(b1-3)Gal(b1-4)GlcNAc(b1-3)Gal(b1-4)GlcNAc(b1-3)Gal(b1-4)GlcNAc(b1-2)Man(a1-6)]Man(b1-4)GlcNAc(b1-4)GlcNAc
# Method in brief: as §1
# [34] = biological target: GlcNAc(b1-3)Gal(b1-4)GlcNAc(b1-3)Gal(b1-4)GlcNAc(b1-3)Gal(b1-4)GlcNAc(b1-2)Man(a1-3)[GlcNAc(b1-3)Gal(b1-4)GlcNAc(b1-3)Gal(b1-4)GlcNAc(b1-3)Gal(b1-4)GlcNAc(b1-2)Man(a1-6)]Man(b1-4)GlcNAc(b1-4)[Fuc(a1-6)]GlcNAc
# Method in brief: as §1
# [35] = biological target: GlcNAc(b1-3)Gal(b1-4)GlcNAc(b1-3)Gal(b1-4)GlcNAc(b1-3)Gal(b1-4)GlcNAc(b1-2)[GlcNAc(b1-3)Gal(b1-4)GlcNAc(b1-3)Gal(b1-4)GlcNAc(b1-3)Gal(b1-4)GlcNAc(b1-6)]Man(a1-6)[GlcNAc(b1-3)Gal(b1-4)GlcNAc(b1-3)Gal(b1-4)GlcNAc(b1-3)Gal(b1-4)GlcNAc(b1-2)Man(a1-3)]Man(b1-4)GlcNAc(b1-4)[Fuc(a1-6)]GlcNAc
# Method in brief: as §1
# [36] = biological target: GlcNAc(b1-3)Gal(b1-4)GlcNAc(b1-3)Gal(b1-4)GlcNAc(b1-3)Gal(b1-4)GlcNAc(b1-3)Gal(b1-4)GlcNAc(b1-2)Man(a1-3)[GlcNAc(b1-3)Gal(b1-4)GlcNAc(b1-3)Gal(b1-4)GlcNAc(b1-3)Gal(b1-4)GlcNAc(b1-3)Gal(b1-4)GlcNAc(b1-2)Man(a1-6)]Man(b1-4)GlcNAc(b1-4)GlcNAc
# Method in brief: as §1
# [37] = biological target: GlcNAc(b1-3)Gal(b1-4)GlcNAc(b1-3)Gal(b1-4)GlcNAc(b1-3)Gal(b1-4)GlcNAc(b1-3)Gal(b1-4)GlcNAc(b1-2)Man(a1-3)[GlcNAc(b1-3)Gal(b1-4)GlcNAc(b1-3)Gal(b1-4)GlcNAc(b1-3)Gal(b1-4)GlcNAc(b1-3)Gal(b1-4)GlcNAc(b1-2)Man(a1-6)]Man(b1-4)GlcNAc(b1-4)[Fuc(a1-6)]GlcNAc
# Method in brief: as §1
# [38] = biological target: GlcNAc(b1-3)Gal(b1-4)GlcNAc(b1-3)Gal(b1-4)GlcNAc(b1-3)Gal(b1-4)GlcNAc(b1-3)Gal(b1-4)GlcNAc(b1-2)[GlcNAc(b1-3)Gal(b1-4)GlcNAc(b1-3)Gal(b1-4)GlcNAc(b1-3)Gal(b1-4)GlcNAc(b1-3)Gal(b1-4)GlcNAc(b1-6)]Man(a1-6)[GlcNAc(b1-3)Gal(b1-4)GlcNAc(b1-3)Gal(b1-4)GlcNAc(b1-3)Gal(b1-4)GlcNAc(b1-3)Gal(b1-4)GlcNAc(b1-2)Man(a1-3)]Man(b1-4)GlcNAc(b1-4)[Fuc(a1-6)]GlcNAc
# Method in brief: as §1
binder,measurement,setting,value
PX9961X-pdi-531-24-531 (Parabacteroides distasonis) (protein) DLTEEIHSSVIAENYYNNAGEVMAAMMRPWGHFCGTMQVAQSPWSCNELSSDCAAWPQKGRHGYDNGDWIRLHRHQWIPTDGQVVDAWKKLFEGIGYANNFLTDTENIDFEALQVPMSKAQAQAEMRVYRAYCYWYVMDMFGTAPICEKIGEINPSSKSRAELFAWIEKELNESIPSLSESKTETYGRVSKWGAYALLARLYLNAEIYTGQARWDDCIAACDELAKGGFALDKKWNDTFRADNDKRSTEIIWSIVYDEVYAKGMGWYQRWLHYAHQTGWDLQSGPWNGLVTQPTFYDSFADNDLRKIEGFLIGKQYPRKVDENGNYYYDTTAEPLKGSEEYNGQDLVFVNYIKSMTEGEENSGARSIKYEIQPGTTGDMNNDWVMFRYSEVIYNKAEALMRKNGGKATQEVVDMINSVRQRSFKAEDWEKAKYTTATLTMDEFLAEKGREFAFEGIRRTDLVRFNKFVTTSWWDKTASNEPKRNIFPIPQRQLDANANLSPNEANSLF,glycan array binding signal (z-score),[1],-0.265
same,glycan array binding signal (z-score),[2],0.601
same,glycan array binding signal (z-score),[3],0.021
same,glycan array binding signal (z-score),[4],0.222
same,glycan array binding signal (z-score),[5],-0.352
same,glycan array binding signal (z-score),[6],-0.245
same,glycan array binding signal (z-score),[7],-0.426
same,glycan array binding signal (z-score),[8],-0.611
same,glycan array binding signal (z-score),[9],-0.345
same,glycan array binding signal (z-score),[10],-0.516
same,glycan array binding signal (z-score),[11],-0.011
same,glycan array binding signal (z-score),[12],-0.544
same,glycan array binding signal (z-score),[13],-0.291
same,glycan array binding signal (z-score),[14],-0.363
same,glycan array binding signal (z-score),[15],-0.951
same,glycan array binding signal (z-score),[16],-0.025
same,glycan array binding signal (z-score),[17],-0.384
same,glycan array binding signal (z-score),[18],-0.219
same,glycan array binding signal (z-score),[19],-0.189
same,glycan array binding signal (z-score),[20],-0.984
same,glycan array binding signal (z-score),[21],-0.239
same,glycan array binding signal (z-score),[22],0.313
same,glycan array binding signal (z-score),[23],-0.037
same,glycan array binding signal (z-score),[24],-0.353
same,glycan array binding signal (z-score),[25],-0.269
same,glycan array binding signal (z-score),[26],-0.046
same,glycan array binding signal (z-score),[27],0.501
same,glycan array binding signal (z-score),[28],1.39
same,glycan array binding signal (z-score),[29],-0.862
same,glycan array binding signal (z-score),[30],-0.089
same,glycan array binding signal (z-score),[31],0.078
same,glycan array binding signal (z-score),[32],0.985
same,glycan array binding signal (z-score),[33],1.35
same,glycan array binding signal (z-score),[34],0.723
same,glycan array binding signal (z-score),[35],0.524
same,glycan array binding signal (z-score),[36],0.007
same,glycan array binding signal (z-score),[37],0.179
same,glycan array binding signal (z-score),[38],0.964
